Measured values taken from the supplement of paper PMC6531468.
The other results are listed elsewhere or left out. These are enrichments in a pooled selection; single values are uncertain. Each score is taken over the longer molecules that contain the sequence shown.

Each sequence was assayed on IMP3 KH1-2 (assay: 6-mer SELEX enrichment z-score vs GST control; IMP3 is the RNA-binding protein IGF2BP3; higher = more enriched by binding). Conditions: construct: KH1-2 (164-376); SELEX round: R4.
Procedure: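 SELEX-seq with GST-tagged IMP3 KH1-2 (Pro164-Phe376) and an N40 RNA pool, round 4 (stringent 300/600 mM KCl washes). 6-mer z-score of sequence-tag enrichment normalised to the corresponding GST SELEX round; RNA k-mers written as DNA (T for U).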

Chain of IMP3 KH1-2 (chain, as listed by the source): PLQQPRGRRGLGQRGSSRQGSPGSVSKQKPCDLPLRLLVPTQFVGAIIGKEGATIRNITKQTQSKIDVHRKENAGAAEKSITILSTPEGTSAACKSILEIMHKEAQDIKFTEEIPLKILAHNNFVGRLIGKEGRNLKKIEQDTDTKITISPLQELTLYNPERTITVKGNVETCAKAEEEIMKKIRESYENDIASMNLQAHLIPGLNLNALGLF

Row | Sequence | 6-mer SELEX enrichment z-score
1 | CGGAGC | -1.12
2 | TCGGCA | 1.28
3 | CTTATA | 1.02
4 | TATCTC | 0.202
5 | AGCGAG | -1.85
6 | GATACG | 0.09
7 | CATTCT | 0.91
8 | ATGACC | -0.285
9 | CGGGGT | 0.252
10 | GTACGA | -1.07
11 | GGCTAT | 0.3
12 | GCATAA | 0.704
13 | CTTACA | 1.3
14 | CCAGGG | -0.159
15 | CTAGAC | -0.628
16 | TGTGGC | 0.482
17 | ACTGAA | 0.413
18 | GGCTGG | 0.638
19 | GGTCGT | 0.076
20 | CCTCCT | -0.083

Row | Sequence | 6-mer SELEX enrichment z-score
21 | TTCCGT | 0.677
22 | ACTTAT | 0.916
23 | TGGCGA | -0.201
24 | AAGCGT | -3.44
25 | AGCGAC | -1.36
26 | CAGGCT | 0.275
27 | CGAATG | -0.909
28 | CCGGGC | -1.38
29 | ATCCTG | -0.626
30 | ACCTGA | -1.84
31 | GTAGCG | -1.06
32 | GATACC | -1.11
33 | CGAGCC | -2.79
34 | TGCCAA | -0.804
35 | TATGAT | 1
36 | AGCTGA | -0.919
37 | GGGCTC | 0.137
38 | AATTAT | 1.4
39 | CCCTAC | -0.731
40 | CTTATC | 0.298
